Experimental data published in publication PMC4336329 (PLoS ONE, 2015).
Out of some 310,000 compounds screened, about 14,000 (4.5%) showed an effect of 50% or more. Effects have a minus sign here. The list shows a part of the results.

biological target: human ether-à-go-go-related gene (hERG) potassium channel (human, UniProt Q12809); test: primary screen, population patch clamp on CHO cells stably expressing hERG
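Further: peak tail current of the secondary pulse compared with the same well before compound.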

Chain of human ether-à-go-go-related gene (hERG) potassium channel (Q12809 whole entry, looked up): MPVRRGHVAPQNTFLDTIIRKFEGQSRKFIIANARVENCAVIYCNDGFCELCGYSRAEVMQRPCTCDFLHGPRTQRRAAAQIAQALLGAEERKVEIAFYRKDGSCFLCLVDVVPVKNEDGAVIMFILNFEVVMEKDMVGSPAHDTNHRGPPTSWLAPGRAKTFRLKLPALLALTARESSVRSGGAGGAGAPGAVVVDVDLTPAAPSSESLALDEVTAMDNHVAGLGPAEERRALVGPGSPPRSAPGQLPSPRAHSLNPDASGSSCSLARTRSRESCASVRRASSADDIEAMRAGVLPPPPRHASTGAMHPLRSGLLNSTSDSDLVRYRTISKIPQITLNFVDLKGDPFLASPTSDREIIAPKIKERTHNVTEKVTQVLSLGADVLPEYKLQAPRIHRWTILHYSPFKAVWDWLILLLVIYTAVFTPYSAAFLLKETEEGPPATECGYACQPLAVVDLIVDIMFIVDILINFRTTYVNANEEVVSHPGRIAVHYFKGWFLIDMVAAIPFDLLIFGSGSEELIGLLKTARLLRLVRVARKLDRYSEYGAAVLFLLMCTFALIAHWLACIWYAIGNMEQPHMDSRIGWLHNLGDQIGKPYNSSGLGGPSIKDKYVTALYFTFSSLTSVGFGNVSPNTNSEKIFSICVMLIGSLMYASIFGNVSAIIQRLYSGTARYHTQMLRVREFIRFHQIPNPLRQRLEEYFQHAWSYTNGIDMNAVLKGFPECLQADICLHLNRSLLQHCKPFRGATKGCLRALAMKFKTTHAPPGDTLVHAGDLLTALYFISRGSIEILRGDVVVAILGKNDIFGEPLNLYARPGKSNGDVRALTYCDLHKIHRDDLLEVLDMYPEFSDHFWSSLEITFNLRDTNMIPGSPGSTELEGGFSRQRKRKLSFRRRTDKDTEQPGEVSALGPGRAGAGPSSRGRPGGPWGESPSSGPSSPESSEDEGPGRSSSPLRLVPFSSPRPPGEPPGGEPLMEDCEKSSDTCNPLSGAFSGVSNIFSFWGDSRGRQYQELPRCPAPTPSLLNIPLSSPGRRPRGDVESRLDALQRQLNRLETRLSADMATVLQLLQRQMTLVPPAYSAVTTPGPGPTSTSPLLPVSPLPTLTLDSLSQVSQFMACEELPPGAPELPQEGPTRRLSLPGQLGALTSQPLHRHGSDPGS

Compound	hERG current change (%, negative = inhibition) at 10uM [%]
COc1ccc(Cl)cc1N(CC(=O)Nc1ccc2c(c1)OCO2)S(C)(=O)=O	-24
O=C1CCC(/C=C/c2ccccc2)=NN1Cc1ccccc1Cl	10.5
CCOc1ccc(NC(=O)CN2CCN(CC(=O)Nc3ccc(F)c(F)c3)CC2)cc1	-78.3
CCCCCOc1ccc(C(=O)Nc2ccc(N3CCOCC3)cc2N2CCOCC2)cc1	2.67
CC(C)(C)n1nnnc1C(c1cccc(C#N)c1)N1CCCCCC1 (stereo not shown)	-4.75
COc1cccc(-n2c(SCC(N)=O)nc3ccccc3c2=O)c1	-29.6
COc1ccc(C(=O)Nc2ccc(C(=O)N3CCCCC3C)cc2)c(OC)c1OC (stereo not shown)	-24.2
CCN(CC)S(=O)(=O)c1ccc(Cl)c(C(=O)Oc2cccnc2)c1	-36.8
CCCC(=O)NCCc1cc2ccc(OC)cc2[nH]c1=O	1.74
Cc1cc(NC(=O)COC(=O)c2cc([N+](=O)[O-])ccc2N2CCOCC2)ccc1Br	-4.03
CC(C)(O)C#Cc1ccc(CN2CCN(CCc3ccccc3)C(CCO)C2)s1 (stereo not shown)	-30.7
Cc1nnc(SCC(=O)Nc2cccc(Cl)c2)n1CC1CCCO1 (stereo not shown)	-7.41
Cc1ccccc1NC(=O)NC1(C(=O)NCC2CCCO2)CCCCC1 (stereo not shown)	17.5
COc1ccc(-n2cnnc2SCC(=O)c2ccc(S(=O)(=O)N3CCOCC3)cc2)cc1	-33.3
CCCCNc1ccc(C(CC(N)=O)NC(=O)Cc2cccc3ccccc23)cc1[N+](=O)[O-] (stereo not shown)	4.73
COC(=O)[C@@H](C)NC(=O)c1ccc2oc(CCc3ccccc3)nc2c1	-3.54
CCOC(=O)c1ccc(N2CCN(c3ccc(F)cc3)CC2)c(NC(=O)Nc2cccc(OC)c2)c1	12.1
COc1cc(C(=O)NCCC(C)C)c([N+](=O)[O-])cc1OC	-7.18
COc1cc(OC)cc(C(=O)N2CCCC(Nc3ccc(F)cc3)C2)c1 (stereo not shown)	-4.72
Cc1cccc(C(=O)NNC(=O)c2ccc(Cl)cc2)c1O	-1.78
O=C(Nc1cccc(F)c1)C1C2C=CC3(CN(CCCN4CCOCC4)C(=O)C13)O2 (stereo not shown)	-8.87
Cc1ccc(-c2n[nH]c(=O)c3ccccc23)c(C)c1	17.3

Compound	hERG current change (%, negative = inhibition) at 10uM [%]
Cc1cc(C)c(O)c(-c2cc(C(=O)NCCc3ccc(S(N)(=O)=O)cc3)[nH]n2)c1	21.3
O=[N+]([O-])c1ccc(Oc2ccc(S(=O)(=O)Nc3ccccc3)cc2)cc1	-48.8
O=C1CCN(CCCc2ccccc2)CCN1[C@H](CO)c1ccccc1	-29.7
CSc1cccc(NC(=S)N2CCC(N(C)C3CCCC3)CC2)c1	-29.2
CCCCc1nc2cc(C(=O)NCc3nccn3CC)ccc2o1	-16.5
Cc1cc(NC(=O)C(C)Oc2ccc(C(C)(C)C)cc2)no1 (stereo not shown)	-0.909
Cc1cccc2c(N=O)c(O)n(CCc3ccccc3)c12	20.2
CCCCn1c(N)c(N(CC(C)C)C(=O)c2ccc(Br)s2)c(=O)[nH]c1=O	-45.9
COc1cc(C(=O)NC(=S)Nc2ccc([N+](=O)[O-])cc2C)cc(OC)c1OC	1.65
CCOc1ccc(CCNC(=O)Cc2ccc(S(=O)(=O)N3CCOCC3)s2)cc1OCC	-23.6
Cc1cc(C)c(S(=O)(=O)NCC(=O)O)cc1C	7.17
COC(=O)C1=C(c2ccc(C(C)=O)cc2)C[C@@H]2CC[C@H]1N2C(=O)NC1CC1	19.8
CCC(=O)Nc1c(-c2ccc3ccccc3c2)nc2ccccn12	-16
COc1ccc(C2=Nn3c([n+](C)c4ccccc43)SC2)cc1.[Br-]	-44.2
CNC(=O)CSc1nnc(-c2cccnc2)n1CCc1ccccc1	14.1
COc1cccc(C(C)NC(=S)NCc2ccc(F)cc2)c1 (stereo not shown)	-9.88
CS(=O)(=O)N(CC(=O)N1CCCC1)c1cccc(Cl)c1Cl	-2.02
CC(C)C(=O)N1CCN(CCN=Cc2c(O)n(C)c(=O)n(C)c2=O)CC1	-7.85
COc1ccc(Cl)cc1NC(=O)CCc1nc(-c2ccccc2F)no1	9.34
COc1ccc(-c2noc(CN(C)Cc3ccc(C)o3)n2)cc1	-12.2
O=C(O)c1ccccc1Nc1cc(Cl)c2nonc2c1[N+](=O)[O-]	20.4
